Source: PubChem BioAssay AID1508642 (National Center for Advancing Translational Sciences (NCATS), 2021)
In all, about 43,000 compounds went through this assay and about 200 (0.47%) were called active. Another 12% or so got no clear call; they are omitted. Calls follow the shape of the dose curve; as a rule, active = well fitted cell-killing curve with a large enough effect; inconclusive = small, poorly fitted or top-dose-only effect, or effect the other way; inactive = flat fitted curve, though single readings scatter. This is one part of the list.

experiment: Cell viability qHTS assay in S16 Pmp22-F2sN cells; details: S16 Pmp22-F2sN Schwann cells (luciferase reporters placed in the Pmp22 gene) viability, CellTiter-Glo, 24 h; series mostly up to 57.5 µM; activity change, negative = cytotoxicity: at the top concentration; also: nearly all actives have a fitted effect of over 65% in size
How it was run: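 CellTiter-Glo counter-screen, qHTS, 1536-well. Cells: S16(c9) Pmp22-F2sN, 500-1,000/well in DMEM + 10% FBS. Cpd 23 nL pin transfer, 24 h, 37C/5% CO2. Read: luminescence, CCD imager.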
% is scaled to controls: 0 for no effect and ±100 for the full control effect.

Compound	activity change, negative = cytotoxicity
CCc1nn2c(=O)cc(COC(=O)C(CC)c3ccccc3)nc2s1 (stereo not given)	inactive: 2.29%
CCOC(=O)c1c(Oc2ccc(C(C)=O)cc2)nnc(-c2ccccc2)c1-c1ccccc1	inactive: -18%
COCCCNC(=O)C1CCN(c2cc(C)nc3c(-c4ccc(Cl)cc4)c(C)nn23)CC1	inactive: 4.35%
O=C(CC1N=C2c3ccccc3N=C(SCC(=O)Nc3ccc(F)cc3)N2C1=O)NCc1cccs1 (stereo not given)	inactive: 2.89%
CCCNC(=O)CSc1nc(-c2ccc(OC)cc2)cc(C(F)(F)F)n1	inactive: 16.3%
Cc1ccc(NC(=O)CN2C(=O)CC(C)Sc3ccccc32)c(C)c1 (stereo not given)	inactive: 2.57%
Cc1cccn2c(=O)c3cc(C(=O)Nc4ccc(Cl)c(Cl)c4)sc3nc12	inactive: -0.0909%
Cc1ccc(Nc2ccc(N3CCN(C(=O)c4ccc([N+](=O)[O-])cc4)CC3)nn2)cc1	inactive: 2.51%
Cn1c(SCc2ccc(Br)cc2)nc2c([nH]c3ccccc32)c1=O	inactive: 5.84%
Cc1ccc(S(=O)(=O)NCCc2csc(-c3cccc(F)c3)n2)cc1	inactive: 0.236%
Cc1cc(C)n(C(C)CC(=O)NCc2ccc(Cl)cc2)n1 (stereo not given)	inactive: 1.72%
CCNC(=O)Cn1nc(C)n2c(cc3c(OC)cccc32)c1=O	inactive: 4.92%
Cn1c(Oc2ccc(Cl)cc2)nc2c1c(=O)n(Cc1ccc(F)cc1)c(=O)n2C	inactive: 1.71%
O=C(NCCc1ccccc1)c1ccc2c(c1)N(Cc1ccc(F)cc1)C(=O)c1ccccc1S2	inactive: -0.678%
CCc1ccccc1NC(=O)CC1Sc2ccc(C(F)(F)F)cc2NC1=O (stereo not given)	inactive: -1.32%
CCCCSc1nnc2c(n1)OC(C)N(C(C)=O)c1ccccc1-2 (stereo not given)	inactive: 4.2%
COc1ccc(CCNC(=O)C2COc3ccccc3C2)cc1OC (stereo not given)	inactive: -9.35%
COc1ccc(CCNC(=O)Cc2c(C)c3cc4c(C)coc4c(C)c3oc2=O)cc1	inactive: 8.3%
COc1cc(Cl)c(C)cc1NC(=O)c1cnc(N2CCOCC2)c2ccccc12	inactive: -17.5%
Cc1cc(C)cc(NC(=O)CCC(=O)N2CCSc3ccccc32)c1	inactive: 3.3%

Compound	activity change, negative = cytotoxicity
Cc1cc(C)c2nc(NC(=O)c3ccc(S(=O)(=O)N4CCc5ccccc54)cc3)sc2c1	inactive: 12.3%
CCN(C(=O)Cn1cnc2onc(-c3ccc(F)cc3)c2c1=O)c1ccc(OC)cc1	inactive: -18.1%
O=C(Cn1c(=O)n(Cc2ccc3c(c2)OCO3)c(=O)c2oc3ccccc3c21)Nc1ccccc1F	inactive: 10.9%
COc1cc(OC)c(NC(=O)N2CCCn3nc(C)cc32)cc1Cl	inactive: -0.983%
COc1ccc(-c2nnc(SCC(=O)NC3CCCCC3)nc2-c2ccc(OC)cc2)cc1	inactive: -2.68%
COCCn1c(C)cc(O)c(C(c2ccccc2)N2CCN(c3ccccc3)CC2)c1=O (stereo not given)	inactive: -1.5%
COc1ccc(NC(=O)CCNS(=O)(=O)c2cccc3nsnc23)cc1Cl	inactive: 11.7%
CCn1c(=O)cc(OCC(=O)N2CCN(c3ccc(OC)cc3)CC2)c2ccccc21	inactive: -8.13%
O=C(NCc1nc2ccccc2[nH]1)c1c(F)cccc1F	inactive: 5.6%
Cc1cccc(-n2c(C)nc3cc(C(=O)NCCC4=CCCCC4)ccc32)c1	inactive: 2.05%
O=C(CSc1nc(Nc2ccc(F)cc2)c2ccccc2n1)c1ccc(F)cc1	inactive: 21.2%
CCCS(=O)(=O)N1CC(=O)N(c2ccc(C)cc2)C(C)(C(=O)NC2CCCCCC2)C1 (stereo not given)	inactive: 5.39%
COc1ccc(CCNC(=O)c2cc3sccc3n2Cc2ccc(Cl)cc2)cc1OC	inactive: -2.34%
CCOc1ccccc1CN1CCc2nc(Nc3ccc4c(c3)OCCO4)ncc2C1	inactive: -21.5%
CCCOc1ccc(C2CC(=O)Nc3c2c(C)nn3-c2nncc(-c3cccc(OC)c3)n2)cc1OC (stereo not given)	inactive: -6.82%
COc1cccc(C2=CC(c3cc(Br)ccc3F)n3nnnc3N2)c1 (stereo not given)	inactive: -10.9%
O=c1[nH]c(=O)n(C2CCCCC2)c(O)c1C1=Nc2ccccc2SC(c2ccc(Cl)cc2)C1 (stereo not given)	inactive: -1.13%
COc1ccc2cc3cc(C(=O)N4CCN(c5ccccc5F)CC4)oc3nc2c1	inactive: 1.11%
COC(=O)c1ccc(NC(=O)N2CCN(Cc3cc(=O)n4nc(-c5ccc(C)cc5)sc4n3)CC2)cc1	inactive: 23.5%
CC(CNC(=O)CN1C(=O)c2cccnc2Oc2ccc(Cl)cc21)c1ccccc1 (stereo not given)	inactive: -4.63%

Compound	activity change, negative = cytotoxicity
COc1ccc(-c2noc(-c3ccc(N4CCN(c5ccccc5)CC4)c([N+](=O)[O-])c3)n2)cc1	inactive: 2.87%
COc1cccc(OC)c1C(=O)Nc1nc2c(s1)CCc1ccccc1-2	inactive: 18.7%
Cc1cccc(NC(=O)c2ccc3c(c2)CCN3S(=O)(=O)c2ccccc2)c1C	inactive: -2.97%
Cc1nc2c(c(C)c1CCC(=O)NCc1ccc(Cl)cc1)c(=O)n(C)c(=O)n2C	inactive: 7.61%
COc1ccc(N2CC(C(=O)NCc3nnnn3-c3ccc(C)c(C)c3)CC2=O)cc1 (stereo not given)	inactive: -1.57%
O=C(Cn1c(SCCOc2ccc(Cl)cc2)nc2ccccc21)N1CCCCC1	inactive: 1.23%
COc1ccc(-c2nnc3n2N(C(C)=O)C(c2ccc(Cl)c(Cl)c2)=C(C(C)=O)S3)cc1	inactive: -3.34%
Cc1cccc(N2C(=O)CSC23C(=O)N(CC(=O)NCc2ccccc2Cl)c2ccccc23)c1 (stereo not given)	inactive: -25.4%
COc1ccccc1NC(=O)Cn1c(=O)c(CNc2ccc(C)cc2)cc2cc3c(cc21)OCCO3	inactive: 3.33%
COc1ccc(CCNC(=O)C(=O)NCC(c2ccco2)S(=O)(=O)c2ccccc2)cc1 (stereo not given)	inactive: 6.62%
COc1ccc(NC(=O)c2ccc3c(SCC(=O)O)c4c(nc3c2)CCC4)c(OC)c1	inactive: 2.22%
CCOc1ccccc1N1CC(c2nc3ccccc3n2Cc2c(C)cc(C)cc2C)CC1=O (stereo not given)	inactive: 11.1%
COc1ccc(-c2nc(C)c(CCNC(=O)C(=O)Nc3cc(C)cc(C)c3)s2)cc1OC	inactive: 13.7%
COc1ccc(-c2nc(SCc3cc(=O)c4cc(C)ccc4[nH]3)n[nH]2)cc1	inactive: -22.6%
COc1ccccc1N1CCN(S(=O)(=O)CCNC(=O)COc2ccc(C(C)C)cc2)CC1	inactive: -24.2%
Cc1sc2ncn(CC(=O)N3CCN(c4cccc(Cl)c4)CC3)c(=O)c2c1S(=O)(=O)N1CCN(c2ncccn2)CC1	inactive: 11.1%
Cc1cccc(N2CCN(C(=O)c3cc4c(=O)n(C)c5ccccc5c4s3)CC2C)c1 (stereo not given)	inactive: 3.65%
CCOCCCNC(=O)C(c1ccc(OC)cc1)N(Cc1ccc2c(c1)OCO2)C(=O)c1ccccc1O (stereo not given)	inactive: -7.71%
Cc1ccccc1C(=O)Nc1c(C)nc(Nc2ccccc2)nc1Nc1ccccc1	inactive: -6.71%
CC(=O)N1c2ccc(S(=O)(=O)NCC3CCC(C(=O)Nc4cccc(C)c4C)CC3)cc2CC1C (stereo not given)	inactive: -14.3%
